This passage reports AUC and IC50 results from the supplement of paper PMC4967469.

Common to all, as to assay: Viability of human cancer cell lines after 72 h of drug (GDSC screen)
Compound in one experiment: O=C(NC(COc1ccc2[nH]c(=O)[nH]c2c1)c1ccccc1)c1cccn(Cc2ccc(F)c(F)c2)c1=O [KIN001-244]
The conditions noted are these: top dose 20 µM; top dose inferred. On the procedure:
(§1)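 Human cancer cell lines in 384-well plates, medium with 10% serum, drug for 72 h over a 256-fold dose range (nine 2-fold or five 4-fold steps up to the top dose). Adherent lines were fixed and stained with the nucleic acid dye Syto60, suspension lines read with resazurin; signal relative to control wells, capped at 0 and 100%. One two-parameter sigmoid per drug and line, fitted in a mixed model over all curves with the slope shared within a line.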

Compound in a further experiment: COc1cc2nccc(Oc3ccc(NC(=O)Nc4cc(C)on4)c(Cl)c3)c2cc1OC [AV-951]
The conditions noted are these: top dose 0.128 µM; top dose inferred. As for the experimental part: as §1

Compound in a further experiment: CC(=O)Nc1cccc(-n2c(=O)n(C3CC3)c(=O)c3c(Nc4ccc(I)cc4F)n(C)c(=O)c(C)c32)c1 [Trametinib]
The conditions noted are these: top dose 1 µM. On the procedure:
as §1

Compound in the next experiment: CCN1CCN(Cc2ccc(NC(=O)c3ccc(C)c(/C=C/c4cnc5[nH]ccc5c4OC)c3)cc2C(F)(F)F)CC1 [HG-6-64-1]
Conditions: top dose 5.12 µM; top dose inferred. On the procedure: as §1

Compound in another experiment: CCc1cncnc1N1CCN(Cc2nc3ccc(C(F)(F)F)cc3[nH]2)CC1 [PF-4708671]
The conditions noted are these: top dose 10 µM; top dose inferred. On the procedure: as §1

Compound in the next experiment: CCNC(=O)C[C@@H]1N=C(c2ccc(Cl)cc2)c2cc(OC)ccc2-n2c(C)nnc21 [I-BET-762]
The conditions noted are these: top dose 20 µM; top dose inferred. As for the experimental part: as §1

Compound in the next experiment: Nc1ccccc1NC(=O)c1ccc(CNC(=O)OCc2cccnc2)cc1 [MS-275]
The conditions noted are these: top dose 5 µM; top dose inferred. As for the experimental part:
as §1

A lower IC50 marks a more sensitive line; a fit beyond the top or the lowest dose is shown as a bound at that dose. The AUC spans the tested range (256-fold, ending at the top dose) of the same fit; the more sensitive the line, the further below 1. For part of these data: Any top dose called inferred was derived from the fitted curves, not read from the paper.

As to “NCI-H187 (small cell lung carcinoma, suspension)”, the AUC with KIN001-244 is 0.859; with AV-951, 0.969; with Trametinib, 0.987; in the experiment with HG-6-64-1, 0.988; with PF-4708671 it was 0.95; with I-BET-762, 0.944. The AUC with MS-275 stood at 0.574. The IC50 with KIN001-244 was 19 µM; with AV-951 it was greater than 0.128 µM; with Trametinib, greater than 1 µM; with HG-6-64-1 it was greater than 5.12 µM; with PF-4708671, greater than 10 µM; in the experiment with I-BET-762, greater than 20 µM. Moreover, the IC50 in the experiment with MS-275 came to 0.507 µM.

In the case of “NCI-H209 (small cell lung carcinoma, suspension)”, the AUC with KIN001-244 was 0.85; with AV-951, 0.944; in the experiment with Trametinib, 0.91; with HG-6-64-1, 0.875; with PF-4708671, 0.959; in the experiment with I-BET-762, 0.947. Further, in the experiment with MS-275, the AUC is 0.548. Moreover, the half-inhibitory concentration (IC50) with KIN001-244 was 16.9 µM; with AV-951, greater than 0.128 µM; with Trametinib it was greater than 1 µM; with HG-6-64-1, greater than 5.12 µM; with PF-4708671, greater than 10 µM; in the experiment with I-BET-762 it was greater than 20 µM. The IC50 with MS-275 came to 0.426 µM.

For “NCI-H211 (small cell lung carcinoma, adherent)”, the AUC with KIN001-244 was found to be 0.797; with AV-951, 0.979; with Trametinib, 0.932; with HG-6-64-1 it was 0.845; with PF-4708671 it was 0.933; in the experiment with I-BET-762 it was 0.691. In addition, the AUC with MS-275 stood at 0.573. Also, the 50% inhibitory concentration (IC50) with KIN001-244 is 9.14 µM; with AV-951, greater than 0.128 µM; with Trametinib it was greater than 1 µM; with HG-6-64-1, 3.56 µM; with PF-4708671 it was greater than 10 µM; with I-BET-762, 4.2 µM. Further, in the experiment with MS-275, the IC50 was 0.491 µM.

On to “NCI-H226 (lung squamous cell carcinoma, adherent)”, for which the AUC came out at 0.885 in the experiment with KIN001-244; 0.984 in the experiment with AV-951; 0.877 with Trametinib; 0.873 with HG-6-64-1; 0.956 with PF-4708671; 0.911 in the experiment with I-BET-762. Also, the AUC with MS-275 is 0.979. Further, the IC50 in the experiment with KIN001-244 was greater than 20 µM; with AV-951, greater than 0.128 µM; with Trametinib, greater than 1 µM; with HG-6-64-1, greater than 5.12 µM; in the experiment with PF-4708671, greater than 10 µM; with I-BET-762, greater than 20 µM. The 50% inhibitory concentration (IC50) with MS-275 is greater than 5 µM.

As for “NCI-H322M (lung adenocarcinoma, suspension)”, the AUC in the experiment with KIN001-244 was determined as 0.96; with AV-951, 0.987; with Trametinib it was 0.948; with HG-6-64-1 it was 0.918; in the experiment with PF-4708671 it was 0.986; with I-BET-762, 0.976. For the same cell line, in the experiment with MS-275, the AUC was 0.965. Also, the 50% inhibitory concentration (IC50) was greater than 20 µM with KIN001-244; greater than 0.128 µM in the experiment with AV-951; greater than 1 µM in the experiment with Trametinib; greater than 5.12 µM with HG-6-64-1; greater than 10 µM with PF-4708671; greater than 20 µM in the experiment with I-BET-762. In addition, in the experiment with MS-275, the 50% inhibitory concentration (IC50) is greater than 5 µM.

As to “NCI-H345 (small cell lung carcinoma, suspension)”, the AUC with KIN001-244 worked out at 0.965; with AV-951, 0.99; in the experiment with Trametinib it was 0.985; with HG-6-64-1 it was 0.92; in the experiment with PF-4708671, 0.982; with I-BET-762, 0.974. Further, the AUC with MS-275 was 0.772. The IC50 with KIN001-244 is greater than 20 µM; with AV-951 it was greater than 0.128 µM; in the experiment with Trametinib, greater than 1 µM; in the experiment with HG-6-64-1, greater than 5.12 µM; with PF-4708671, greater than 10 µM; with I-BET-762 it was greater than 20 µM. In addition, the half-maximal inhibitory concentration (IC50) in the experiment with MS-275 was 2.04 µM.

With “NCI-H446 (small cell lung carcinoma, semi-adherent)”, the AUC was 0.799 with KIN001-244; 0.984 with AV-951; 0.984 with Trametinib; 0.931 in the experiment with HG-6-64-1; 0.985 in the experiment with PF-4708671; 0.707 with I-BET-762. Also, the AUC in the experiment with MS-275 is 0.717. Moreover, the IC50 with KIN001-244 was 10.4 µM; in the experiment with AV-951 it was greater than 0.128 µM; with Trametinib it was greater than 1 µM; with HG-6-64-1 it was greater than 5.12 µM; in the experiment with PF-4708671, greater than 10 µM; in the experiment with I-BET-762, 5.02 µM. Moreover, the IC50 in the experiment with MS-275 stood at 1.35 µM.

Turning to “NCI-H524 (small cell lung carcinoma, suspension)”, the AUC with KIN001-244 turned out to be 0.991; with AV-951, 0.99; with Trametinib, 0.99; in the experiment with HG-6-64-1 it was 0.978; in the experiment with PF-4708671, 0.985; with I-BET-762 it was 0.989. In addition, the AUC in the experiment with MS-275 worked out at 0.582. Further, the 50% inhibitory concentration (IC50) with KIN001-244 was greater than 20 µM; with AV-951, greater than 0.128 µM; with Trametinib, greater than 1 µM; in the experiment with HG-6-64-1 it was greater than 5.12 µM; with PF-4708671, greater than 10 µM; with I-BET-762, greater than 20 µM. In addition, the half-maximal inhibitory concentration (IC50) with MS-275 was 0.509 µM.

In the case of NCI-H716 (large intestine, suspension), the AUC amounted to 0.865 with KIN001-244; 0.904 in the experiment with AV-951; 0.373 with Trametinib; 0.774 with HG-6-64-1; 0.954 with PF-4708671; 0.884 with I-BET-762. The AUC with MS-275 stood at 0.92. Also, the concentration for half-maximal inhibition (IC50) with KIN001-244 was greater than 20 µM; with AV-951, greater than 0.128 µM; with Trametinib, 0.0255 µM; with HG-6-64-1 it was 2.56 µM; with PF-4708671, greater than 10 µM; in the experiment with I-BET-762 it was greater than 20 µM. Further, in the experiment with MS-275, the IC50 was greater than 5 µM.
